Source: PubChem BioAssay AID463173 (ICCB-Longwood Screening Facility, Harvard Medical School, 2010)
About 1,700 (3.3%) of roughly 52,000 compounds were called active. No stated cut-off is given here; in the data, active means survival mostly below about 52% (no sharp cut-off); inactive means mostly above about 56%. This is one part of the list.

The compounds below were run on Wild type (assay: growth inhibition of S. aureus wild type versus tarO mutant, primary screen, teichoic acid synthesis inhibitors, RN4220, OD600 (AID 463173)). Details: S. aureus RN4220 wild type/DeltatarO growth, OD600, 18 h, active compounds read low, screened at 18.75 µg/mL (by protocol).
`CCOc1ccc(CN2CCN(C(=O)c3ccco3)CC2)cc1` was tested, and the survival was inactive: 103%.
For `COc1ccc(-c2ccc3c(N)c(C(=O)c4ccc(OC)c(OC)c4)sc3n2)cc1`, the survival was inactive: 86%.
`CCC(C)NC(=O)CCCN1C(=O)CCn2nc(-c3cccn3C)cc21` (stereo unspecified) was tested, and the survival was inactive: 100%.
In the case of `CCc1ccc(-n2c(=O)c3c4c(sc3n(CC(=O)c3ccc(F)cc3)c2=O)CCC4)cc1`, the survival is reported as inactive: 85%.
With `COc1ccc(CNC(=O)c2ccc(-c3nc(CSc4ccccc4)c(C)o3)cc2)cc1OC` the survival was inactive: 77%.
`CCCc1cc(=O)[nH]c(SCC(=O)N2CCN(c3ccccc3)CC2)n1` was tested, and the survival was inactive: 108%.
With `COc1ccc(CNC(=O)CSCc2nc(-c3ccccc3C)oc2C)cc1` the survival was inactive: 75%.
With `CCc1cccc(NC(=O)COC(=O)c2cn(CC)c3nc(C)ccc3c2=O)c1` the survival was inactive: 92%.
`O=S1(=O)c2cccc3cccc(c23)N1Cc1ccccc1F` was tested, and the survival was inactive: 105%.
For `COc1ccccc1C(=O)Nc1ccccc1OCc1cc(=O)n2c(C)csc2n1`, the survival was inactive: 81%.
`CC(C)c1nn2c(=O)cc(COC(=O)c3ccc(NC(=O)COc4ccccc4)cc3)nc2s1` was tested, and the survival was inactive: 68%.
For `CN(C)S(=O)(=O)N1CCNCC1`, the survival was inactive: 114%.
For `O=S(=O)(c1ccc(-c2cc(C(F)(F)F)on2)s1)N1CCN(c2ccccc2F)CC1`, the survival was inactive: 87%.
`COc1ccc(NC(=O)CN2C(=O)CCn3nc(-c4cccn4C)cc32)cc1Cl` was tested, and the survival was inactive: 51%.
With `CCOC(=O)c1sc2cccc(F)c2c1S(=O)(=O)NCc1ccccc1Cl` the survival was inactive: 130%.
`O=C(CS(=O)(=O)c1cccc2nsnc12)N1CCN(c2cccc(Cl)c2)CC1` was tested, and the survival was inactive: 143%.
For `COc1ccc(-c2cc(-c3ccccc3)c(C#N)c(SCC(O)CS(=O)(=O)Cc3ccc(Cl)cc3)n2)cc1` (stereo unspecified), the survival was inactive: 141%.
For `CCCN1CCN(c2ncnc3sc(C(=O)Nc4ccc(C(C)C)cc4)c(C)c23)CC1`, the survival was inactive: 69%.
`[O-][n+]1onc(-c2ccccc2)c1-c1ccccc1` was tested, and the survival was inactive: 109%.
For `COC(=O)c1ccccc1NC(=O)c1cc(-c2ccccc2O)no1`, the survival was inactive: 110%.
In the case of `CC(=O)Nc1nonc1-c1nnc(SCC(=O)Nc2ccc(C)cc2)n1-c1ccccc1`, the survival is reported as inactive: 61%.
In the case of `Cc1ccc(N(CC(=O)NCCc2ccc(Cl)cc2)S(=O)(=O)c2c(C)noc2C)cc1`, the survival is reported as inactive: 120%.
For `Cc1ccc(C(c2sc3nc(-c4ccco4)nn3c2O)N2CCCC2)cc1` (stereo unspecified), the survival was inactive: 75%.
In the case of `COc1cccc(N2CCN(C(=O)c3ccc(C)c(NC(=O)c4nsc5ccccc45)c3)CC2)c1`, the survival is reported as inactive: 72%.
For `CCN(CC)Cc1c(C(C)(C)C)oc(C)c1C(=O)O`, the survival was inactive: 109%.
`Cc1ccc(NC(=O)CN2C(=O)c3ccccc3Sc3ccc(C(=O)N4CCOCC4)cc32)cc1F` was tested, and the survival was inactive: 85%.
With `Cc1cccc(NC(=O)Cn2nnc(-c3nc(-c4ccncc4)no3)c2N)c1` the survival was inactive: 100%.
In the case of `COc1ccc(CN2CCc3c(c(=O)n4ncc(C(=O)N5CCN(c6ccccc6OC)CC5)c4n3C)C2)cc1`, the survival is reported as inactive: 69%.
For `Cc1ccc(N2CCN(C(=O)c3nn(C)c4c3CS(=O)(=O)c3ccccc3-4)CC2)c(C)c1`, the survival was inactive: 81%.
`CCc1ccc2nc(N(Cc3cccnc3)C(=O)c3ccc(C#N)cc3)sc2c1` was tested, and the survival was inactive: 73%.
In the case of `CCCCC(=O)Nc1ccc2nc(SCC(=O)N3CCc4ccccc43)sc2c1`, the survival is reported as inactive: 103%.
With `CC(=O)Nc1ccc(NC(=O)c2oc3c(c2C)-c2nn(Cc4ccccc4Cl)cc2CC3)cc1` the survival was inactive: 88%.
`O=C(CCn1c(=O)c2sccc2n(Cc2ccccc2F)c1=O)NCc1ccc2c(c1)OCO2` was tested, and the survival was inactive: 90%.
In the case of `CCOC(=O)c1ccc(NC(=O)Cn2nc3c4ccccc4n(Cc4cccc(F)c4)cc-3c2=O)cc1`, the survival is reported as inactive: 99%.
For `CCOC(=O)N1CCc2c(sc3c2c(=O)n(Cc2ccccc2)c(=O)n3CC(=O)Nc2cccc(CC)c2)C1`, the survival was inactive: 90%.
With `CCOc1ccc(-n2cc(-c3ccccc3)c3c(NCCc4ccccc4)ncnc32)cc1` the survival was inactive: 74%.
For `Cc1cccc(NC(=O)Cn2nc(-c3ccccc3)c3cnc4ccccc4c32)c1`, the survival was inactive: 90%.
For `CCc1cccc(NC(=O)CCn2c(=O)c3cccn3c3cccnc32)c1`, the survival was inactive: 89%.
In the case of `Cc1ccc(Nc2ccc3cc(S(=O)(=O)N4CCC(C)CC4)ccc3n2)c(Cl)c1`, the survival is reported as inactive: 79%.
For `O=C(NCCc1ccccc1)c1ccc(CS(=O)Cc2ccc(Cl)cc2)o1` (stereo unspecified), the survival was inactive: 80%.
With `COc1ccc(C(=O)c2c(N)c(-c3nc(-c4ccc5c(c4)OCO5)cs3)c3ccccn23)cc1` the survival was inactive: 122%.
For `O=C(CCNS(=O)(=O)c1ccc2c(c1)CCCC(=O)N2)Nc1cccc(Cl)c1`, the survival was inactive: 75%.
With `Cc1cc(NC(=O)CCc2nc3cccnc3n2-c2ccccc2)ccc1Br` the survival was inactive: 59%.
In the case of `COC(=O)Cn1c(C2CC(=O)N(c3c(C)cccc3C)C2)nc2ccccc21` (stereo unspecified), the survival is reported as inactive: 81%.
In the case of `O=S(=O)(c1ccc(C2CCCCC2)cc1)N1CCN(c2ccc(Cl)c(Cl)c2)CC1`, the survival is reported as inactive: 75%.
With `O=C(Cn1nnc(-c2ccncc2)n1)N(C1CCCCC1)C1CCCCC1` the survival was inactive: 98%.
With `Nn1c(SCCC(=O)O)nnc1-c1ccccc1` the survival was inactive: 116%.
With `O=C(Nc1ccc(F)cc1F)C1CCN(c2ncccn2)CC1` the survival was inactive: 86%.
For `CCC(c1nnnn1C1CCCC1)N1CCN(Cc2ccccc2)CC1` (stereo unspecified), the survival was inactive: 104%.
For `Cc1ccc(C)c(N2CCN(c3ncnc4c3nc3n4CCCC3)CC2)c1`, the survival was inactive: 128%.
With `Cc1ccccc1NC(=O)Cn1cc(C(=O)c2ccco2)c2ccccc21` the survival was inactive: 65%.
`Cn1c(=O)c2nc(SCC(=O)Nc3ccc(OC(F)(F)F)cc3)n(C)c2n(C)c1=O` was tested, and the survival was inactive: 59%.
In the case of `COc1ccc(CC(=O)Nc2c(C(=O)N3CCN(c4ccccc4)CC3)oc3ccccc23)cc1OC`, the survival is reported as inactive: 76%.
In the case of `Cc1cccc(Cn2cc(S(=O)(=O)c3cccc(Cl)c3)c(=O)c3cc(F)c(N4CCOCC4)cc32)c1`, the survival is reported as inactive: 100%.
For `CCOC(=O)c1c(C)[nH]c(C)c1S(=O)(=O)N(C)CC(=O)Nc1ccc(OC)cc1`, the survival was inactive: 68%.
For `O=C1OCC2=C1C(c1cccc(Cl)c1)CC(=O)N2c1ccc(C(F)(F)F)cc1` (stereo unspecified), the survival was inactive: 70%.
